The other results are listed elsewhere or left out. At the low end of the ranking the order means little.
The sequences below were run against SIX1-Q177R homeodomain (UniProt Q15475) (assay: universal protein binding microarray). Settings: Universal all-10-mer PBM (8x60K, AMADID 030236), 300 nM GST-tagged protein, Alexa Fluor 488 anti-GST; buffer, salt, pH and temperature not stated; high values mean tight binding; most listed sequences are background and not binding sites; double strand, one strand shown.
Work on CGCATAAA yielded a binding signal of -0.0365 E-score. Work on ATAAACAG yielded a binding signal of -0.0724 E-score. CCTTACTC gave a binding signal of 0.0444 E-score. In the case of AGCAGCGG, the binding signal is reported as 0.0613 E-score. Sequence TAGTTGCA has a binding signal of 0.0297 E-score. CGAAAGCA showed a binding signal of -0.119 E-score. AAGGGTCC gave a binding signal of 0.037 E-score. GGTCCACA showed a binding signal of 0.17 E-score. In the case of GTTCCCGA, the binding signal is reported as -0.138 E-score. For CTGACACA, the binding signal was 0.297 E-score. In the case of CAGCCGCG, the binding signal is reported as -0.0345 E-score. ACGCTTAA showed a binding signal of -0.152 E-score. AACATACC was tested, and the binding signal was 0.0978 E-score. For TATGTCAA, the binding signal was -0.0378 E-score. AAGTTTTG gave a binding signal of 0.107 E-score. With ACGAAATA the binding signal was -0.0357 E-score. In the case of ATAGAAGC, the binding signal is reported as -0.171 E-score. ATCGAATC gave a binding signal of -0.0584 E-score. For TAAATAGA, the binding signal was -0.16 E-score. In the case of TCAGCTGA, the binding signal is reported as -0.00855 E-score. Sequence TACCGCTA has a binding signal of 0.138 E-score. AACCCAGA gave a binding signal of 0.214 E-score. Work on CCATTTAG yielded a binding signal of -0.0186 E-score. For AGTAAAGA, the binding signal was -0.255 E-score. For TAGATAGA, the binding signal was -0.00407 E-score. For GACTCCTA, the binding signal was 0.215 E-score. In the case of CCCGTGCC, the binding signal is reported as 0.0493 E-score. In the case of CAGTCGCA, the binding signal is reported as -0.166 E-score. In the case of CATTGGTC, the binding signal is reported as -0.192 E-score. ATTCGATC showed a binding signal of -0.0582 E-score. With CCAATAGG the binding signal was 0.126 E-score. ACTGTCAC gave a binding signal of -0.0469 E-score. With ATTGTAGA the binding signal was -0.183 E-score. Work on TCTAGCAA yielded a binding signal of 0.018 E-score. TCTACTAA was tested, and the binding signal was 0.00987 E-score. Sequence GAAATCCA has a binding signal of -0.0993 E-score. For AGCTCCTA, the binding signal was -0.225 E-score. Sequence AGGAACCC has a binding signal of 0.107 E-score. AGAACTCC gave a binding signal of 0.0866 E-score. Work on CGGGCGGC yielded a binding signal of 0.021 E-score. In the case of GAGCAAGA, the binding signal is reported as -0.0996 E-score. With TCTATTAA the binding signal was -0.0196 E-score. In the case of GGTCAATA, the binding signal is reported as 0.0293 E-score. Sequence AACGCTAA has a binding signal of -0.091 E-score. With CTTATGCA the binding signal was -0.0294 E-score. CTGACTTC showed a binding signal of -0.159 E-score. In the case of AATCCTAC, the binding signal is reported as 0.0611 E-score. For ACAAGCCA, the binding signal was -0.0852 E-score. Work on AGTATTGG yielded a binding signal of -0.101 E-score. In the case of ATTCGTTC, the binding signal is reported as -0.124 E-score. For CTTCAATA, the binding signal was 0.0683 E-score. Sequence ATTCTACG has a binding signal of 0.0246 E-score. Work on CACGTAAG yielded a binding signal of 0.107 E-score. Sequence ACAGACGT has a binding signal of -0.0836 E-score. ACATGGGT gave a binding signal of 0.209 E-score. GTGGTCCA gave a binding signal of -0.139 E-score. CGGACTAC was tested, and the binding signal was -0.0941 E-score. TCATCAAA was tested, and the binding signal was -0.196 E-score. GCACTCCA was tested, and the binding signal was 0.0802 E-score. Sequence AGACTATA has a binding signal of -0.101 E-score. Work on GTTCCATA yielded a binding signal of 0.0438 E-score. AAACCACG showed a binding signal of -0.0307 E-score. Work on CGGGATTC yielded a binding signal of 0.0315 E-score. CCAGCCAG showed a binding signal of -0.0604 E-score. With CTTACTGA the binding signal was -0.0119 E-score. AGCATTAG gave a binding signal of -0.168 E-score. ATTGCCGG gave a binding signal of -0.0374 E-score. Work on GAATGACC yielded a binding signal of -0.0497 E-score. For GGCTCGTA, the binding signal was 0.0343 E-score. GCATTCGC gave a binding signal of -0.0774 E-score. With ACAGATTG the binding signal was 0.00756 E-score. With ATATTGCA the binding signal was -0.122 E-score. With AAACAGCC the binding signal was -0.213 E-score. AGTTTGAA was tested, and the binding signal was -0.18 E-score. GCAATCAC gave a binding signal of -0.0882 E-score. With CCTTCCAG the binding signal was -0.13 E-score. ATGCATGC gave a binding signal of -0.14 E-score. ATGGACGA gave a binding signal of -0.151 E-score. AGCTGTCG was tested, and the binding signal was -0.101 E-score. AAGCCAGT gave a binding signal of -0.155 E-score. CTCGCGAA gave a binding signal of -0.191 E-score. With GCCATTGA the binding signal was -0.159 E-score. ACCCGTTA gave a binding signal of 0.119 E-score. With ATCTACCA the binding signal was -0.068 E-score. CGCTTCTC gave a binding signal of -0.0702 E-score. In the case of CGAGGATC, the binding signal is reported as 0.0989 E-score. Work on AGGGGCAT yielded a binding signal of -0.0339 E-score. Sequence GACAATCA has a binding signal of -0.0739 E-score. With GACAGCTA the binding signal was -0.232 E-score. ATCTGCCC gave a binding signal of 0.126 E-score. CAATTAGG showed a binding signal of 0.0238 E-score. Sequence CATTGGGG has a binding signal of 0.162 E-score. AGGCGGCG gave a binding signal of 0.0595 E-score. ATGAGAGG gave a binding signal of -0.113 E-score. With GTCTCAGA the binding signal was -0.029 E-score. AACGGCCC gave a binding signal of -0.13 E-score. In the case of TCTAGTAA, the binding signal is reported as -0.314 E-score. AGTCTTAA showed a binding signal of 0.0291 E-score. In the case of ACAAACAT, the binding signal is reported as -0.184 E-score. AGGCGGAT gave a binding signal of -4.5e-05 E-score. CCGGCTAG was tested, and the binding signal was 0.0115 E-score. Sequence AGTCCACT has a binding signal of -0.00188 E-score. TACCGTAA gave a binding signal of -0.104 E-score. CACATCTG gave a binding signal of 0.133 E-score. AAGCAATT gave a binding signal of -0.224 E-score. In the case of GTTTCGAA, the binding signal is reported as -0.0215 E-score. With GTACTAAA the binding signal was 0.0238 E-score. Work on GGATTTCA yielded a binding signal of -0.0431 E-score. Sequence AGATGGAG has a binding signal of 0.181 E-score. AGCAAAAT gave a binding signal of -0.0789 E-score. Work on GGATTCGA yielded a binding signal of 0.118 E-score. ATACGCGC showed a binding signal of -0.0233 E-score. CCATGTCC gave a binding signal of -0.188 E-score. Sequence ATTTCCCG has a binding signal of -0.146 E-score. Work on ACCGAGGC yielded a binding signal of -0.00278 E-score. Work on CGAAAGCG yielded a binding signal of 0.0656 E-score. Sequence CGCTTTTA has a binding signal of -0.164 E-score. ACCCGACC gave a binding signal of 0.223 E-score. With ATCCGAAC the binding signal was 0.0817 E-score. CAACCATC gave a binding signal of -0.104 E-score. AAAACTTA gave a binding signal of -0.148 E-score. CGACAAAG showed a binding signal of -0.093 E-score. Work on CATGCAAC yielded a binding signal of 0.0746 E-score. With CTATATGC the binding signal was -0.0785 E-score. Work on ATACACCA yielded a binding signal of 0.47 E-score. With AGACATCC the binding signal was -0.25 E-score. ACAGCCTC was tested, and the binding signal was -0.181 E-score. Sequence GTATGCAA has a binding signal of 0.0924 E-score. With ACACCAAC the binding signal was 0.462 E-score. CACGTGGC gave a binding signal of -0.0158 E-score. Work on CGGCGATC yielded a binding signal of -0.00497 E-score. For AACAGACT, the binding signal was -0.183 E-score. AGTTCCCA was tested, and the binding signal was -0.0998 E-score. Work on AACTTCGT yielded a binding signal of -0.216 E-score. ATTATATC showed a binding signal of -0.15 E-score. Work on AGGTAGAT yielded a binding signal of -0.085 E-score. Work on CAGCCGAC yielded a binding signal of 0.196 E-score. In the case of ACACGGAT, the binding signal is reported as 0.392 E-score. For ACGGCCTG, the binding signal was -0.0622 E-score. Sequence GTATCTGA has a binding signal of 0.236 E-score. With GCTATTCA the binding signal was 0.0754 E-score. With ATAAAGGC the binding signal was -0.207 E-score. CCCGTTGC was tested, and the binding signal was -0.0962 E-score. GCATTCCC was tested, and the binding signal was -0.0753 E-score. TAACGCAA was tested, and the binding signal was -0.0787 E-score. In the case of CGAGGGCA, the binding signal is reported as 0.0243 E-score. ACTCCTTA gave a binding signal of 0.00654 E-score. For ACAGGACC, the binding signal was -0.255 E-score. CCGTGTGC showed a binding signal of 0.215 E-score. With CCGAACTC the binding signal was -0.149 E-score. Sequence AATATCAT has a binding signal of -0.0565 E-score. For GAGTCGTA, the binding signal was 0.091 E-score. TATGTTAA showed a binding signal of -0.142 E-score. In the case of CAGTGTTC, the binding signal is reported as 0.355 E-score. GCCTACTA was tested, and the binding signal was -0.0109 E-score. CCCTTCGG gave a binding signal of 0.0473 E-score. With GATGGCGC the binding signal was -0.0114 E-score. ATCGCCAC was tested, and the binding signal was 0.147 E-score. CAGTAACG gave a binding signal of -0.203 E-score. Sequence CCGAACAA has a binding signal of -0.0185 E-score. AGGCGACT was tested, and the binding signal was -0.172 E-score. AGTCCAAT was tested, and the binding signal was -0.111 E-score. AGATCCGC showed a binding signal of 0.0216 E-score. GTGAGTAA gave a binding signal of -0.0154 E-score. In the case of GATCTCGC, the binding signal is reported as -0.0221 E-score. In the case of CCGGGTTC, the binding signal is reported as 0.22 E-score. ACTGACAC gave a binding signal of 0.478 E-score. CCTAGGTC was tested, and the binding signal was -0.0423 E-score. ATCTACTG showed a binding signal of -0.0572 E-score. Work on ACCTCAGG yielded a binding signal of 0.00128 E-score. ATCGACCA showed a binding signal of -0.229 E-score. ATATCTGA gave a binding signal of -0.122 E-score.

Source: paper PMC10668032
